In the assay the target is MSMEI_3879 (recombinant) (M. smegmatis, UniProt I7G417). Put plainly: MST; 1 mM ATPγS; Kapp from Hill fit.

B1: ^H7-SUMOClpC1^FLAG (recombinant ClpC1) (enzyme)
chain: not shown
For the molecule B1, the Kd is 6.4 µM.

Broadly, the Kd is a measure of binding affinity in units of concentration.

Values taken from article PMC10433963 (2023).
